# Structures can show the parent of a compound that is named as a salt. ± gives the standard deviation of the averaged measurements. The list shows a part of the results.
# Columns and labels:
# Conditions in all cases: priming compound concentration 100 µM
# [1] = tested on: hAMSC donor 1; experiment: Hoechst total cell count ratio vs vehicle control; higher = more cells (less toxicity)
# [2] = tested on: hAMSC donor 2; experiment: as above
# [3] = tested on: hAMSC donor 1; experiment: transgenic luciferase activity (RLU/mg protein) fold change vs vehicle control (ratio); higher = more transgene expression
# [4] = tested on: hAMSC donor 2; experiment: as above
# [5] = tested on: hAMSC donor 1; experiment: transfection efficiency (EGFP+ cells / Hoechst count) fold change vs vehicle control (ratio); hAMSC are human adipose-derived mesenchymal stem cells given an EGFP-luciferase plasmid by lipofection; higher = enhanced transfection
# [6] = tested on: hAMSC donor 2; experiment: as above
# 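For Hoechst total cell count ratio vs vehicle control in this document: compound added 30 min before Lipofectamine 3000 lipoplex delivery, triplicate-well means expressed against DMSO vehicle control wells of the same 96-well plate.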
# 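For transfection efficiency (EGFP+ cells / Hoechst count) fold change vs vehicle control in this document: compounds added 30 min before Lipofectamine 3000 lipoplex transfection, triplicate means relative to DMSO vehicle wells on the same plate, luciferase RLU normalized to BCA total protein.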
# 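For transgenic luciferase activity (RLU/mg protein) fold change vs vehicle control in this document: compounds in DMSO added 30 min before Lipofectamine 3000 transfection of pEGFP-Luc in 96-well plates, values are means of triplicate wells over DMSO vehicle wells on the same plate.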
Structure (SMILES),Hoechst total cell count ratio [1],Hoechst total cell count ratio [2],transgenic luciferase activity [3],transgenic luciferase activity [4],transfection efficiency [5],transfection efficiency [6]
CO[C@@H]1[C@@H](O[C@@H]2O[C@H](C)[C@@H](O[C@H]3C[C@@](C)(O)[C@@H](OC(=O)CC(C)C)[C@H](C)O3)[C@H](N(C)C)[C@H]2O)[C@@H](CC=O)C[C@@H](C)[C@@H](O)/C=C/C=C/C[C@@H](C)OC(=O)C[C@H]1O [Kitasamycin],1.57 ± 0.13,1.4 ± 0.18,0.985 ± 0.42,0.446 ± 0.24,0.534 ± 0.31,0.753 ± 0.087
Nc1ccn([C@@H]2CS[C@H](CO)O2)c(=O)n1 [Lamivudine],1.15 ± 0.032,1.15 ± 0.13,0.805 ± 0.25,0.541 ± 0.12,1.1 ± 0.45,0.909 ± 0.17
CC(C)c1ccc2oc3nc(N)c(C(=O)O)cc3c(=O)c2c1 [Amlexanox],1.54 ± 0.084,1.12 ± 0.068,2.99 ± 1.9,3.47 ± 0.78,1.31 ± 0.31,1.59 ± 0.19
Oc1ccc(/C=C/c2cc(O)cc(O)c2)cc1 [Resveratrol],1.56 ± 0.3,1.48 ± 0.15,10.3 ± 1.8,1.02 ± 0.21,1.7 ± 0.26,1.75 ± 0.29
CCCNC(C)C(=O)Nc1ccccc1C (stereo not drawn) [Prilocaine hydrochloride],1.23 ± 0.091,1.33 ± 0.17,1.61 ± 0.31,1.26 ± 0.096,1.43 ± 0.35,1.04 ± 0.17
CC(C)(C(=O)c1cccnc1)c1cccnc1 [Metyrapone],1.13 ± 0.14,1.22 ± 0.081,0.59 ± 0.022,1.42 ± 0.18,0.695 ± 0.14,1.03 ± 0.083
Cc1ccsc1C(=CCCN1CCC[C@@H](C(=O)O)C1)c1sccc1C [Tiagabine hydrochloride],1.54 ± 0.23,1.56 ± 0.13,0.701 ± 0.069,0.786 ± 0.09,0.642 ± 0.29,0.627 ± 0.089
CC(=O)N[C@H]1[C@H]([C@H](O)[C@H](O)CO)OC(C(=O)O)=C[C@@H]1NC(=N)N [Zanamivir hydrate],1.26 ± 0.2,1.76 ± 0.21,0.918 ± 0.57,0.558 ± 0.0061,0.935 ± 0.14,0.681 ± 0.13
Cn1nnc2c(C(N)=O)ncn2c1=O [Temozolomide],1.54 ± 0.12,1.19 ± 0.057,0.3 ± 0.17,0.807 ± 0.27,0.671 ± 0.3,0.977 ± 0.11
CC(=O)O[C@@]12CO[C@@H]1C[C@H](O)[C@@]1(C)C(=O)[C@H](O)C3=C(C)[C@@H](OC(=O)[C@H](O)[C@@H](NC(=O)OC(C)(C)C)c4ccccc4)C[C@@](O)([C@@H](OC(=O)c4ccccc4)[C@H]21)C3(C)C [Docetaxel],0.512 ± 0.051,0.53 ± 0.19,1.42 ± 0.39,0.298 ± 0.011,2.66 ± 0.23,0.617 ± 0.24
O=C(O)COCCN1CCN(C(c2ccccc2)c2ccc(Cl)cc2)CC1 (stereo not drawn) [Cetirizine],1.14 ± 0.13,1.38 ± 0.19,0.261 ± 0.23,0.767 ± 0.066,1.22 ± 0.16,0.81 ± 0.058
Fc1ccc([C@@H]2CCNC[C@H]2COc2ccc3c(c2)OCO3)cc1 [Paroxetine maleate],0.23 ± 0.081,0.053 ± 0.032,0.00542 ± 0.0058,0.00033 ± 4.1e-05,0.516 ± 0.042,0.698 ± 0.78
CC(=O)CCCCn1cnc2c1c(=O)n(C)c(=O)n2C [Lomifylline],1.19 ± 0.028,1.38 ± 0.18,1.1 ± 0.58,1.05 ± 0.63,0.924 ± 0.36,1.44 ± 0.32
NC1CCN(c2nc3c(cc2F)c(=O)c(C(=O)O)cn3-c2ccc(F)cc2F)C1 (stereo not drawn) [Tosufloxacin tosilate],3.06 ± 0.42,1.18 ± 0.02,0.829 ± 0.61,0.809 ± 0.13,0.826 ± 0.1,1.31 ± 0.076
CCOC(=O)C1=C(C)NC(C)=C(C(=O)OC)C1c1cccc([N+](=O)[O-])c1 (stereo not drawn) [Nitrendipine],0.624 ± 0.079,0.731 ± 0.17,2.06 ± 0.8,0.681 ± 0.51,2.13 ± 0.19,0.899 ± 0.24
CC1=C(C(=O)O)N2C(=O)[C@@H](NC(=O)[C@H](N)c3ccccc3)[C@H]2SC1 [Cephalexin hydrate],1.77 ± 0.067,1.11 ± 0.037,0.897 ± 0.084,0.95 ± 0.24,1.13 ± 0.24,0.639 ± 0.048
COc1c(N2CCNC(C)C2)c(F)cc2c(=O)c(C(=O)O)cn(C3CC3)c12 (stereo not drawn) [Gatifloxacin],1.2 ± 0.086,1.56 ± 0.13,2.09 ± 0.19,0.996 ± 0.25,1.2 ± 0.42,0.734 ± 0.09
CC(C(O)c1ccc(O)cc1)N1CCC(Cc2ccccc2)CC1 (stereo not drawn) [Ifenprodil hemitartrate],1.39 ± 0.14,1.07 ± 0.2,0.481 ± 0.22,0.859 ± 0.2,0.826 ± 0.19,0.825 ± 0.047
O=c1c(O[C@@H]2O[C@H](CO)[C@H](O)[C@H](O)[C@H]2O)c(-c2ccc(O)c(O)c2)oc2cc(O)cc(O)c12 [Hyperoside],1.21 ± 0.18,0.842 ± 0.037,2.85 ± 1.9,0.671 ± 0.068,1.39 ± 0.5,1.66 ± 0.091
O=C1CN2Cc3c(ccc(Cl)c3Cl)N=C2N1 [Anagrelide hydrochloride],2.05 ± 0.15,0.916 ± 0.07,1.26 ± 0.53,0.903 ± 0.11,1.49 ± 0.83,2.83 ± 0.62
Cc1cnc(C(=O)NCCc2ccc(S(=O)(=O)NC(=O)NC3CCCCC3)cc2)cn1 [Glipizide],0.884 ± 0.033,1.18 ± 0.1,1.05 ± 0.49,1.88 ± 0.19,1.32 ± 0.49,1.16 ± 0.18
COc1ccc2c(c1)c(CC(=O)O)c(C)n2C(=O)c1ccc(Cl)cc1 [Indomethacin hydrate],1.39 ± 0.1,1.21 ± 0.093,0.843 ± 0.32,0.734 ± 0.14,0.813 ± 0.17,0.966 ± 0.27
Cc1[nH]cnc1CN1CCc2c(c3ccccc3n2C)C1=O [Alosetron monohydrochloride],1.12 ± 0.042,1.16 ± 0.017,0.198 ± 0.033,0.628 ± 0.093,0.894 ± 0.15,1.01 ± 0.28
